In all, about 310,000 compounds went through this assay and about 14,000 (4.5%) showed an effect of 50% or more. Effects have a minus sign here. The list shows a part of the results.
Target: human ether-à-go-go-related gene (hERG) potassium channel (human, UniProt Q12809)
Assay: primary screen, population patch clamp on CHO cells stably expressing hERG
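Note: peak tail current of the secondary pulse compared with the same well before compound.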

Chain of human ether-à-go-go-related gene (hERG) potassium channel (Q12809 whole entry, looked up): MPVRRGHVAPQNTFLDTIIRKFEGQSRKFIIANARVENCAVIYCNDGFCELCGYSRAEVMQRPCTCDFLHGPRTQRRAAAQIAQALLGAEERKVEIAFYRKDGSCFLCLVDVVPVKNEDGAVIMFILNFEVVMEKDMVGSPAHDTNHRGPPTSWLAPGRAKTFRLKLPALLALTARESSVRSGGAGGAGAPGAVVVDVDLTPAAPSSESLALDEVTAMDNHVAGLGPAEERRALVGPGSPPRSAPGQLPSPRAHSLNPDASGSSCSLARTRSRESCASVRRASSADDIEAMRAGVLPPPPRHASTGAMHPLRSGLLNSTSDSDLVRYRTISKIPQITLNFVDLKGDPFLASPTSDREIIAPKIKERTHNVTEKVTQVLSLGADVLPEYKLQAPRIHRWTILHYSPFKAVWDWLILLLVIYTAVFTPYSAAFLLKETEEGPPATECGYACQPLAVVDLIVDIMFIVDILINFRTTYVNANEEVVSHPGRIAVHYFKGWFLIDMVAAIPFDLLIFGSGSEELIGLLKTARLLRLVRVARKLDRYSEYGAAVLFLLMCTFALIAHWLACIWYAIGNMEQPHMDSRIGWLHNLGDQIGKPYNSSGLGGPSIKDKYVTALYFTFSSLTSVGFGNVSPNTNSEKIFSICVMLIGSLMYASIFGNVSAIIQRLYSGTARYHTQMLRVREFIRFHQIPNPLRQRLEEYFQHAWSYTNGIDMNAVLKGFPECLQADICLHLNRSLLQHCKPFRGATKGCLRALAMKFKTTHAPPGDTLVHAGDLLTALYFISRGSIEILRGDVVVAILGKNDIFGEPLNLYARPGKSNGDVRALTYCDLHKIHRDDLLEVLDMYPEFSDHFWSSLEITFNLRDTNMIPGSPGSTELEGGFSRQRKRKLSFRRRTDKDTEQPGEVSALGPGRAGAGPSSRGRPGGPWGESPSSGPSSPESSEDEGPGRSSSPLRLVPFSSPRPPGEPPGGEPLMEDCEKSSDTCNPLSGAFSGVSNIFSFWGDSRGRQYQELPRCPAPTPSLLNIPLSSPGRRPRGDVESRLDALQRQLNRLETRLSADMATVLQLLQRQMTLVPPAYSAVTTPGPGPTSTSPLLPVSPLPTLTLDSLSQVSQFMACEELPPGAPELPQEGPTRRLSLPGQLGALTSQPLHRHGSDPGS

Structure (SMILES) | hERG current change (%, negative = inhibition) at 10uM
O=c1cc([O-])nc(SCc2ccccc2)n1-c1ccc(Cl)cc1.[K+] | 19.9%
COc1ccc(-n2ncc3c2CC(C)(C)CC3NC(=O)C2=CC(=O)CC(C)(C)O2)cc1 (centres unmarked) | -68.3%
[2H]C(CCOS(N)(=O)=O)c1ccc(C(C)(C)C)cc1 (centres unmarked) | 3.54%
CCc1ccc(NC(=O)CSc2nc3ccsc3c(=O)n2CCC(=O)O)cc1 | 17.6%
Cc1cccc(-n2ccnc2CN2CCC(CO)(Cc3ccccc3)CC2)c1 | -50.1%
O=C(NCc1ccccc1Cl)NC(=O)c1csc([N+](=O)[O-])c1 | -8.11%
CCCCNC(=S)N1CCN(c2ccc(C(C)=O)cc2)CC1 | -40.6%
Cc1cccc(-n2cc(CNCCN3CCOC3=O)c(-c3cccc(F)c3)n2)c1 | -16.4%
Nc1c(N(Cc2ccco2)C(=O)c2ccc(Cl)cc2)c(=O)[nH]c(=O)n1Cc1ccccc1 | 11.5%
c1ccc(-c2noc(CN3CCc4sccc4C3)n2)cc1 | 11%
CCCNc1c(NS(=O)(=O)c2ccc(OC)c(OC)c2)c(=O)oc2ccccc12 | -74.1%
COC(=O)c1ccc(CSc2nc3sc4c(c3c(=O)n2C)CCCC4)o1 | 17.4%
O=C(NCC1CCCO1)C1CCC(=O)N1Cc1ccccc1Cl (centres unmarked) | 10.8%
CCN(CC(=O)Nc1c(F)cccc1F)C(=O)c1ccc(S(=O)(=O)NCc2ccco2)cc1 | 8.72%
CN(C)C(=O)C1OC(C)(C)OC1C(=O)N(C)C (centres unmarked) | 13.5%
CCS(=O)(=O)c1nc(S(=O)(=O)c2ccc(C)cc2)c(N2CCCC2)s1 | 12.1%
Nc1c(N(Cc2ccco2)C(=O)COc2ccccc2)c(=O)[nH]c(=O)n1Cc1ccccc1 | 12.8%
O=C(COc1ncnc2ccccc12)Nc1cccc(S(=O)(=O)N2CCOCC2)c1 | -0.51%
Cc1ccc(/C=C/C(=O)N2CCc3ccccc3C2)cc1 | -6.8%
COCCn1c(C)cc(C(=O)CSc2n[nH]c(N)n2)c1C | 21.4%
CC1CCC2(CC1)NC(=O)N(Cc1nc(-c3ccccc3)no1)C2=O (centres unmarked) | -3.34%
CCOC(=O)Cc1csc(SCc2nc3sc4c(c3c(=O)[nH]2)CCC4)n1 | -0.59%

Structure (SMILES) | hERG current change (%, negative = inhibition) at 10uM
CCCCNC(=O)Nc1cc(C)on1 | -7.32%
CCN(Cc1ccccc1)C(=O)c1c(-c2ccccc2Cl)noc1C | -9.34%
Cl.c1ccc(Cn2nnnc2C(c2cccs2)N2CCOCC2)cc1 (centres unmarked) | 8.91%
Cn1ccs/c1=N\C(=O)Nc1cccc(Cl)c1 | 0.433%
COc1ccc(-c2cc(-c3cc(OC)ccc3O)[nH]n2)cc1 | 16%
CC(/C=N/NC(=O)Cn1cnc2c1c(=O)n(C)c(=O)n2C)=C\c1ccccc1 | 4.35%
OCCC1CN(Cc2cccn2-c2ncccn2)CCN1Cc1ccccc1 (centres unmarked) | -64.2%
COCCCNCCOCCOc1ccccc1-c1ccccc1.O=C(O)C(=O)O | -29.4%
Nc1ccc(O)c(-c2nc3ccccc3s2)c1 | 2.48%
Cn1c(SCC(=O)NC2CCCCC2)nnc1-c1ccc(N)cc1 | 13.9%
CC(C)CNC(=O)CSc1nnc(-c2ccccn2)n1Cc1ccccc1 | -4.82%
CCOc1ccc(C2C(C#N)=C(N)Oc3nc[nH]c(=O)c32)cc1 (centres unmarked) | 12.1%
Cc1cc(CN(C)C(=O)c2ccc(OC3CCN(Cc4ccccn4)CC3)cc2)on1 | -37.7%
COc1ccc(CNc2nc3ccccc3n2Cc2ccc(C)cc2)cc1OC | -19.8%
CCN(CC(=O)NCc1ccc(F)cc1)CC(=O)Nc1ccccc1-c1ccccc1 | -16%
CCc1nc(N2CCN(Cc3ccc4c(c3)OCO4)CC2)c2oc3ccccc3c2n1.Cl | -5.03%
COc1cc(CCC(=O)N2CCN(S(=O)(=O)c3ccc(C)c(C)c3)CC2)cc(OC)c1OC | 8.91%
CCOC(=O)c1c(-c2ccc(F)cc2)csc1NC(=O)C1CCCO1 (centres unmarked) | -5.36%
Cc1cc(C(=O)N(C)Cc2ccc(Br)cc2)no1 | -7.52%
COc1ccc(OCCn2ccnc2C)cc1.O=C(O)C(=O)O | -0.197%
CCc1cc2c(=O)c(-c3nc4ccccc4n3C)c(C)oc2c(CN2CCN(CCO)CC2)c1O | 4.5%
COc1cc(/C=N/NC(=O)C2CCN(CC(O)COCc3ccccc3)CC2)cc(OC)c1OC (centres unmarked) | -71.7%

Structure (SMILES) | hERG current change (%, negative = inhibition) at 10uM
C=C1C2[C@H](OC(C)=O)[C@@H]3CC(=O)[C@]4(C)OC[C@@]3(C)[C@@]4(O)[C@@H](OC(C)=O)[C@H](OC(C)=O)[C@@]2(COC(=O)c2ccccc2)[C@@H](OC(C)=O)C[C@@H]1O (some centres unmarked) | 5.03%
COc1ccc(CCNC(C(=O)Nc2cc(C)cc(C)c2)c2ccccc2)cc1 (centres unmarked) | 9.1%
CCOC(=O)N1CCN(CC(O)c2c[nH]c3ccc(OC)cc23)CC1 (centres unmarked) | 8.02%
NC(=S)NNc1cccc(Cl)c1 | 8.03%
COc1ccc(NC(=O)c2cccc(S(=O)(=O)N3CCN(C)CC3)c2)c(OC)c1 | -4.23%
Cc1ccc(C2(O)C(=O)c3ccccc3C2=O)c(O)c1C | -3.83%
O=C(CSc1nc(C2CC2)nc2ccccc12)Nc1ccccc1 | -1.27%
O=C(Nc1ccccc1)Nc1ccc(NC(=O)c2ccccc2O)cc1 | 13.6%
COCCCNC(=S)N1CCN(c2nc(-c3cccc(OC)c3)cs2)CC1 | 10.7%
COc1ccc(N(CC(=O)Nc2cc(OC)c(OC)cc2C(=O)O)S(=O)(=O)c2c(C)noc2C)cc1 | 15.9%
CC1=C(C(=O)OCc2ccccc2)C(c2cccnc2)n2nnnc2N1 (centres unmarked) | -6.94%
O=C(CCNC(=O)c1ccc(Cl)cc1)NCCCN1CCOCC1 | 4.31%
CN(C(=O)CSc1nnc(-c2ccc(F)cc2)c2ccccc12)C1CCS(=O)(=O)C1 (centres unmarked) | -46.2%
Cc1ccc(-c2ccc(=O)n(CCC(=O)NCc3ccccn3)n2)cc1 | -61%
CCOC(=O)CNC(=O)N(CCOC)CC1CCCN(C2Cc3ccccc3C2)C1 (centres unmarked) | -28.5%
COC(=O)COc1ccc(/C=C2\C(=O)NC(=S)N(c3ccc(C)cc3)C2=O)cc1OC | 16%
CN(C)S(=O)(=O)c1cc(NC(=O)[C@H](Cc2ccccc2)N2C(=O)c3ccccc3C2=O)ccc1Cl | 5.08%
CC(C)(CC(=O)O)CC(=O)NCc1c(Cl)cccc1Oc1ccccc1 | 20.1%
O=C(CCCOc1ccc(Cl)cc1Cl)Nc1cccnc1 | -12.9%
O=C(Nc1ccc(N2CCCCC2)cc1)c1cccnc1Cl | 13.4%
CC1CCCCN1C(=O)CCS(=O)(=O)Cc1ccccc1 (centres unmarked) | -3.41%
CCC(=O)OC1(c2ccccc2)CCN(C)CC1C.Cl (centres unmarked) | 7%

Structure (SMILES) | hERG current change (%, negative = inhibition) at 10uM
Cc1ccccc1C(=O)N1CCC(n2nccc2NC(=O)CCOc2ccccc2)CC1 | -6.91%
O=C(NC1CCS(=O)(=O)C1)c1cccc(S(=O)(=O)N2CCOCC2)c1 (centres unmarked) | -3.62%
COCC(=O)NC1CCN(CC(=O)Nc2ccccc2[N+](=O)[O-])CC1 | -5.61%
CC(C)(CO)NC(=O)CCCOc1ccc(Cl)cc1Cl | -2.49%
Cc1onc(-c2c(F)cccc2Cl)c1C(=O)NC(=S)NC1CCS(=O)(=O)C1 (centres unmarked) | 0.498%
CC1Cc2ccccc2N1C(=O)CNc1ccccc1N1CCCCC1 (centres unmarked) | 2.49%
Cc1ccc(-c2nc(NC(=O)CSc3nnnn3-c3ccccc3)ns2)cc1 | 8.81%
O=C(O)c1cccc(-c2ccc(/C=C3/SC(=Nc4ccccc4)N(Cc4cccnc4)C3=O)o2)c1 | 13.1%
CCc1sc(C(=O)N2CCC3(CC2)OCCO3)cc1Br | -7.08%
CN1C(=O)c2cccc(NC(=O)CCc3ccccc3)c2C1=O | -19.6%
CCOc1nc(C)nc(NC(=O)NS(=O)(=O)c2ccccc2Cl)n1 | -11.9%
N#Cc1ccsc1NC(=O)COC(=O)c1cc2ccccc2cc1O | -0.704%
COc1ccc(NC(=O)NCc2ccc3c(c2)OCO3)c(OC)c1 | 11.5%
Cc1ccc(Cl)c(OCC(=O)Nc2ccccc2N2CCCCC2)c1 | 5.15%
COc1ccc(NC(=O)c2ccc(-n3cnnn3)cc2)c([N+](=O)[O-])c1 | 4.47%
COc1ccc(-c2cc(C)nc(SCc3cccc(C(=O)O)c3)n2)cc1 | -19.1%
COc1c(C(=O)NCCSC(C)(C)C)ccc2ccccc12 | -13.9%
FC(F)(F)c1ccccc1N1CC1c1ccncc1 (centres unmarked) | 13.3%
COc1ccc2[nH]c(C(=O)N3CCN(Cc4ccccc4)CC3)cc2c1OC | -9.06%
CC1(c2ccc([N+](=O)[O-])cc2)Nc2ccccc2S1 (centres unmarked) | -40.8%

From paper PMC4336329 (PLoS ONE, 2015)
